Experimental findings from US20240124575A1 (SIMCERE ZAIMING PHARMACEUTICAL, published 2024) are described below.

In test [1] the target is T1, human CD33-his protein (human, UniProt P20138 18-259).
T1 construct: range 18-259; bought protein; also called hCD33-his; recombinant human CD33-his; not shown: His tag
The test is described as follows: competition ELISA, coated human CD33-his, vs Biotin-C33B904 at EC80; antibody 500 nM. For orientation: An ELISA detects its analyte on a solid surface through an enzyme-linked reagent.

For test [2], the target named is T1, human CD33-his protein. Put plainly: competition ELISA, coated human CD33-his, vs Biotin-C33B904 at EC80; antibody 15.63 nM.
T1 sequence (P20138 18-259 limits assumed): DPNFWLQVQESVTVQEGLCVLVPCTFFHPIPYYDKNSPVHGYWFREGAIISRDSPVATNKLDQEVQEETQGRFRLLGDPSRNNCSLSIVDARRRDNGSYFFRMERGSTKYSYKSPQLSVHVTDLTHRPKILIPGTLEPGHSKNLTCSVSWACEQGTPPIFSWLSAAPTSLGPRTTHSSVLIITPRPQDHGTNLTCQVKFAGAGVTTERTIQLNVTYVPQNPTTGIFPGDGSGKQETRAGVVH
Test [3] addresses T1, human CD33-his protein. Put plainly: competition ELISA, coated human CD33-his, vs Biotin-C33B904 at EC80; antibody 125.00 nM.
For test [4], the target named is T1, human CD33-his protein. The test is described as follows: competition ELISA, coated human CD33-his, vs Biotin-C33B904 at EC80; antibody 250.00 nM.
Test [5] has as its target T1, human CD33-his protein. The test is described as follows: competition ELISA, coated human CD33-his, vs Biotin-C33B904 at EC80; antibody 0 nM (no competitor).
In test [6] the target is T1, human CD33-his protein. The test is described as follows: competition ELISA, coated human CD33-his, vs Biotin-C33B904 at EC80; antibody 62.50 nM.
Test [7] addresses T1, human CD33-his protein. Put plainly: competition ELISA, coated human CD33-his, vs Biotin-C33B904 at EC80; antibody 1.95 nM.
The target in test [8] is T1, human CD33-his protein. Put plainly: competition ELISA, coated human CD33-his, vs Biotin-C33B904 at EC80; antibody 7.81 nM.
For test [9], the target named is T1, human CD33-his protein. Put plainly: competition ELISA, coated human CD33-his, vs Biotin-C33B904 at EC80; antibody 31.25 nM.
In test [10] the target is T1, human CD33-his protein. Put plainly: competition ELISA, coated human CD33-his, vs Biotin-C33B904 at EC80; antibody 3.91 nM.
The target in test [11] is T1, human CD33-his protein. The test is described as follows: competition ELISA, coated human CD33-his, vs Biotin-C33B904 at EC80; antibody 0.98 nM.
Test [12] has as its target T1, human CD33-his protein. The test is described as follows: competition ELISA, coated human CD33-his, vs Biotin-C33B904 at EC80; antibody 0.49 nM.

B1: S006-NB146-20 (Fc fusion)
chain: EVQLVESGGGSVQAGGSLRLSCGTPQSWFRLSSYVMNWYRQAPGKRRELVAEITQDDTTNYTPSVKGRFAISRDNANNTVHLQMNSLKPEDTAVYYCNTIQIWGQGTQVTVSS[letters of human IgG1 Fc with changes left out]
notes: tested as VHH-Fc (VHH with human IgG1 hinge and Fc)
As to B1, the “OD450 (Biotin-C33B904 signal)” value with human CD33-his protein [1] amounted to 1.6; with human CD33-his protein [2] it was 2.33; with human CD33-his protein [3] it was 1.96; in the test with human CD33-his protein [4] it was 1.61; with human CD33-his protein [5], 2.33; with human CD33-his protein [6], 2.07. The “OD450 (Biotin-C33B904 signal)” value stood at 2.29 with human CD33-his protein [7]; 2.33 with human CD33-his protein [8]; 2.2 in the test with human CD33-his protein [9]; 2.43 in the test with human CD33-his protein [10]; 2.27 with human CD33-his protein [11]; 2.25 with human CD33-his protein [12].

B2: S006-NB146-39 (Fc fusion)
chain: EVQLVESGGGLVQPGESLRLSCTAPGIILDYYPIGWFRQAPGKEREGVAFITNSDDSTIYTNYADSVKGRFTISREKNTVYLQMNSLKPEDTALYYCAARSTYIVGRNENALNSSDYDYWGQGTQVTVSS[letters of human IgG1 Fc with changes left out]
notes: as for B1
For the molecule B2, the “OD450 (Biotin-C33B904 signal)” value with human CD33-his protein [1] stood at 0.26; in the test with human CD33-his protein [2], 2.25; in the test with human CD33-his protein [3], 0.5; with human CD33-his protein [4] it was 0.34; with human CD33-his protein [5] it was 2.51; in the test with human CD33-his protein [6] it was 1.14. The “OD450 (Biotin-C33B904 signal)” value was found to be 2.61 with human CD33-his protein [7]; 2.13 with human CD33-his protein [8]; 1.64 with human CD33-his protein [9]; 2.51 in the test with human CD33-his protein [10]; 2.56 in the test with human CD33-his protein [11]; 2.45 in the test with human CD33-his protein [12].

B3: S006-NB146-46 (Fc fusion)
chain: QLQLVESGGGLVQPGGSLRLSCTAPGIVLDYYPIGWFRQAPGKEREGVSFITNSDDSTIYTNYADSVKGRFTISREKNTVYLQMNSLKPEDTAVYYCAARSTYIVGRNENALNASDYDYWGQGTQVTVSS[letters of human IgG1 Fc with changes left out]
notes: as for B1
In the case of B3, the “OD450 (Biotin-C33B904 signal)” value turned out to be 0.19 with human CD33-his protein [1]; 1.78 with human CD33-his protein [2]; 0.45 in the test with human CD33-his protein [3]; 0.26 in the test with human CD33-his protein [4]; 2.24 with human CD33-his protein [5]; 0.95 in the test with human CD33-his protein [6]. In addition, the “OD450 (Biotin-C33B904 signal)” value in the test with human CD33-his protein [7] amounted to 2.07; with human CD33-his protein [8] it was 1.76; with human CD33-his protein [9] it was 1.05; in the test with human CD33-his protein [10], 1.99; with human CD33-his protein [11], 2.16; with human CD33-his protein [12], 2.14.

B4: S006-NB146-3 (Fc fusion)
chain: EVQVVESGGGLVQSGGSLRLSCAASGAIFTSNAMDYAMGWYRQVSGKQREWVATITSDDDTNYGDSAKGRFTISRDSAKNTAYLQMNSLKPEDTAVYYCFANVRSDRSTLYRNYWGQGTQVTVSS[letters of human IgG1 Fc with changes left out]
notes: as for B1
In the case of B4, the “OD450 (Biotin-C33B904 signal)” value stood at 2.61 with human CD33-his protein [1]; 2.35 with human CD33-his protein [2]; 2.48 with human CD33-his protein [3]; 2.46 in the test with human CD33-his protein [4]; 2.35 in the test with human CD33-his protein [5]; 2.35 with human CD33-his protein [6]. Further, the “OD450 (Biotin-C33B904 signal)” value in the test with human CD33-his protein [7] was 2.44; with human CD33-his protein [8], 2.35; with human CD33-his protein [9], 2.46; in the test with human CD33-his protein [10] it was 2.2; in the test with human CD33-his protein [11] it was 2.12; with human CD33-his protein [12], 2.28.

B5: S006-NB146-40 (Fc fusion)
chain: QVQLVESGGGLVQSGGSLRLSCAASGSIFTSNDMDYAMGWYRQVSGKQREWVATITSDEDTNYGDSVKGRFTISRDSAKNTAYLQMNSLKPEDTAVYYCFANLRSDRSTLYRNYWGQGTQVTVSS[letters of human IgG1 Fc with changes left out]
notes: as for B1
On to B5, for which the “OD450 (Biotin-C33B904 signal)” value came to 2.87 with human CD33-his protein [1]; 2.39 in the test with human CD33-his protein [2]; 2.94 with human CD33-his protein [3]; 2.81 in the test with human CD33-his protein [4]; 2.29 with human CD33-his protein [5]; 2.57 with human CD33-his protein [6]. In addition, the “OD450 (Biotin-C33B904 signal)” value is 2.31 with human CD33-his protein [7]; 2.4 with human CD33-his protein [8]; 2.47 in the test with human CD33-his protein [9]; 2.42 with human CD33-his protein [10]; 2.36 in the test with human CD33-his protein [11]; 2.21 with human CD33-his protein [12].
